{
  "source": "ChEMBL document CHEMBL1201862",
  "about": "“PubChem BioAssay data set” (2004)",
  "note": "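Protocol summary: plate cells (96-well), add compound at 5 concentrations, incubate 48 h, interpolate endpoints linearly. GI50 is the concentration that inhibits growth by half.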 The source made the active and inactive calls. Cut-off read from the data, not from the text of the source: active = GI50 up to about 1.1 µM and inactive = higher.",
  "data": [
    {"test_system": "NCI-H322M", "test": "growth of human tumour cells (NCI), 48 h", "values": [
      {"compound": "CC(/C=C/C(=O)c1sc(-n2nc(-c3ccccc3)cc2-c2ccccc2)nc1C)=C\\c1ccccc1", "GI50": "inactive: 85.1 µM"},
      {"compound": "O=C(Nc1ccc([N+](=O)[O-])cc1)C1C(=O)C(=O)N(c2ccc([N+](=O)[O-])cc2)C1=O", "note": "(stereo not given)", "GI50": "inactive: > 100 µM"},
      {"compound": "Clc1ccc(CCN[C@H]2CCCC[C@H]2N2CCCC2)cc1Cl", "GI50": "inactive: 17.8 µM"},
      {"compound": "COC1=C(OC)CCC(/C(C#N)=C/c2ccc(OC)c(OC)c2)=C1", "GI50": "inactive: > 100 µM"},
      {"compound": "COc1cc(OC2OC(CO)C(O)C(O)C2O)c2c(O)c3c(=O)cc(C)oc3cc2c1", "note": "(stereo not given)", "GI50": "inactive: > 100 µM"},
      {"compound": "CCOC(=O)C(C(=O)OCC)=C1NC2(c3ccccc3Nc3ccc(C)cc32)C(C(=O)OC)S1", "note": "(stereo not given)", "GI50": "inactive: 75.3 µM"},
      {"compound": "CN(C)/C(F)=P\\C(F)(F)F", "note": "(stereo not given)", "GI50": "inactive: > 100 µM"},
      {"compound": "CC(=O)c1ccc(NC(=O)C(=O)CC(=O)c2sc(-n3nc(-c4ccccc4)cc3-c3ccccc3)nc2C)cc1", "GI50": "inactive: > 100 µM"},
      {"compound": "CCOC(=O)CCC(NC(=O)c1ccc(NCc2ccc3nc(OC)c(OC)nc3c2)c2ccccc12)C(=O)OCC", "note": "(stereo not given)", "GI50": "inactive: > 100 µM"},
      {"compound": "CCOC(=O)c1cc(C2(O)CCN(CC(C)CC)C2=O)c(-c2cc(C)no2)[nH]1", "note": "(stereo not given)", "GI50": "inactive: > 100 µM"},
      {"compound": "O=c1c2c3c(sc2nc2n1sc1nc4sc5c(c4c(=O)n12)CCCC5)CCCC3", "GI50": "inactive: > 87.9 µM"},
      {"compound": "Nc1cc2c(C3OC(CO)C(O)C3O)n[nH]c2c(=S)[nH]1", "note": "(stereo not given)", "GI50": "inactive: > 100 µM"},
      {"compound": "Cc1c(C(=O)C/C(=N/NC(=O)c2ccccc2)C(=O)Nc2ccc(Cl)cc2)[n+]([O-])c2ccccc2[n+]1[O-]", "GI50": "inactive: > 100 µM"},
      {"compound": "COC(=O)CC(NC(=O)OCc1ccccc1)C(C(C)=O)C(=O)OCc1ccccc1", "note": "(stereo not given)", "GI50": "inactive: > 31.6 µM"},
      {"compound": "O=C(c1c(Cl)cc(Cl)cc1Cl)N(Cc1cccnc1)C(=S)N(Cc1cccnc1)C(=O)c1c(Cl)cc(Cl)cc1Cl", "GI50": "inactive: 7 µM"},
      {"compound": "c1ccc(SC2(Sc3ccccc3)CCCC2)cc1", "GI50": "inactive: > 100 µM"},
      {"compound": "CC(=O)OCC1OC(n2c3c(cc(C#N)c2=S)CCCCC3)C(OC(C)=O)C(OC(C)=O)C1OC(C)=O", "note": "(stereo not given)", "GI50": "inactive: > 100 µM"},
      {"compound": "CN(C)CCNC(=O)c1cccc(CO)c1[N+](=O)[O-]", "GI50": "inactive: > 100 µM"},
      {"compound": "O=C1c2cccc3cc([N+](=O)[O-])cc(c23)C(=O)N1O", "GI50": "inactive: 26.2 µM"},
      {"compound": "CC(=O)O/C=C\\OC1CCCC1", "GI50": "inactive: > 100 µM"},
      {"compound": "CC(CO)CCNc1ncnc2c1ncn2CCC#N", "note": "(stereo not given)", "GI50": "inactive: > 100 µM"},
      {"compound": "CSC1=Nc2ccccc2-c2nc(-c3ccccc3)cc(-c3ccccc3)c2C1", "GI50": "inactive: 24.7 µM"},
      {"compound": "COc1ccc(N(c2ccc(C#N)cc2)c2ccc(C#N)cc2)cc1", "GI50": "inactive: 99.5 µM"},
      {"compound": "COc1cc2c(cc1OC)CC(N=[N+]=[N-])c1cc(OC)c(OC)cc1/C=C\\2", "note": "(stereo not given)", "GI50": "inactive: 43.9 µM"},
      {"compound": "Cc1c(/C=N/N(C)C)oc2c1cc(O)c1ncccc12", "GI50": "inactive: 1.96 µM"},
      {"compound": "CN(C)c1n/c(=N/c2ncn[nH]2)ss1", "GI50": "inactive: > 100 µM"},
      {"compound": "COC(=O)C(=O)C(C(=O)C(=O)Nc1ccc(Cl)cc1Cl)c1nc2ccc(Cl)cc2nc1O", "note": "(stereo not given)", "GI50": "inactive: > 100 µM"},
      {"compound": "CC(=O)O[C@H]1CC[C@@]2(C)C(=CC[C@@H]3C2CC[C@]2(C)C(=O)NC(=O)CC32)C1", "note": "(stereo not given in full)", "GI50": "inactive: > 100 µM"},
      {"compound": "CN(CC(=O)O)c1ncc2c(n1)-c1ccccc1SC2", "GI50": "inactive: > 100 µM"},
      {"compound": "Cn1cc(S(=O)(=O)NC(=O)Nc2ccc(Cl)cc2)c(=O)c2ccc(F)cc21", "GI50": "inactive: > 100 µM"},
      {"compound": "CC(C)(C)c1cc(OCc2nnc3sc(Cc4ccccc4)nn23)c(Cl)cc1OCc1nnc2sc(Cc3ccccc3)nn12", "GI50": "inactive: 44.6 µM"},
      {"compound": "O=C(c1cccc(OCc2ccccc2)c1OCc1ccccc1)N1CCSC1=S", "GI50": "inactive: 39.5 µM"},
      {"compound": "COC(=O)CC(C(C(=O)OC)C(=O)OC)N1C(=O)OC(c2ccccc2)C1c1ccccc1", "note": "(stereo not given)", "GI50": "inactive: > 100 µM"},
      {"compound": "CN(C)Cc1cc(C(=O)/C=C/c2c(F)cccc2Cl)cc(CN(C)C)c1O", "GI50": "inactive: 14.3 µM"},
      {"compound": "O=c1c(C(c2ccc(-c3ccccc3)cc2)c2c(O)oc3ccccc3c2=O)c(O)oc2ccccc12", "GI50": "inactive: 30.4 µM"}
    ]}
  ]
}
